Screen size: about 140,000 compounds; about 240 (0.17%) were called active. The inconclusive results got no clear call from the source; some entries with a clear call stand among them for comparison. Calls come from the whole dose curve; as a rule, active = well fitted inhibition curve with a large enough effect; inconclusive = small, poorly fitted or top-dose-only effect; inactive = no such curve, though single readings can be large or run the other way. A potency beside an inconclusive call is a rough fit, not a confirmed value.
Experiment: Primary qHTS assay for inhibitors of alpha-synuclein gene (SNCA) expression; note: nearly all actives have a fitted effect of over 45% in size
Conditions: HEK-293 SNCA-luciferase knock-in, luminescence, 24 h; series mostly up to 57.2 µM
Potency is the fitted concentration of half-maximal effect; tags give direction and shape of the fitted curve.

Row | SMILES | Potency
1 | CCC(C)NC(=O)Cn1c(=O)n(Cc2ccc(C(=O)NCc3ccccc3OC)cc2)c(=O)c2ccccc21 (centres undefined) | inconclusive: 2.82 µM [inhibitor, single point]
2 | O=C(Nc1cccc(C(F)(F)F)c1)c1nc2c(o1)CCN(Cc1nccs1)CC2 | inactive
3 | COCCN1CCN(C[C@@H]2C=C(C)[C@H](Cc3nnc(-c4cccnc4)o3)C[C@H]2C(C)C)CC1 | inactive
4 | O=C(Nc1ccc(Cl)cc1Cl)c1ccn2cncc2c1 | inactive
5 | CC(C)Cc1cn(CC2CCCN(C(=O)NC3CCCCCC3)C2)nn1 (centres undefined) | inconclusive: 1 µM [inhibitor, full curve]
6 | COc1ccc(-c2nc(C3CC(=O)N(C4CCCCC4)C3)no2)cc1 (centres undefined) | inconclusive: 39.8 µM [inhibitor, single point]
7 | Cc1c(CN2CCCC(COc3ccccc3C(=O)N3CCC(C)CC3)C2)cnn1C (centres undefined) | inconclusive: 31.6 µM [inhibitor, single point]
8 | O=C(CCNc1c(-c2ccccc2)nc2cnccn12)NC1CCCC1 | inconclusive: 8.91 µM [inhibitor, single point]
9 | CC1(C)Cc2c(sc(NC(=S)NC(=O)c3ccccc3)c2C(=O)O)CO1 | inactive
10 | O=C(c1ccc(N2CCC(O)CC2)nc1)N1CCC(Oc2cccnc2)CC1 | inconclusive: 8.91 µM [inhibitor, single point]
11 | Cc1nc(-c2c3n(c(=O)n(Cc4ccc(Cl)cc4)c2=O)CCCC3)no1 | inactive
12 | CCCc1noc(-c2cccn3c(CNC(=O)c4cc(Cl)ccc4F)nnc23)n1 | inconclusive: 2.82 µM [inhibitor, full curve, poor fit]
13 | N#Cc1cccc(-c2cn3c(n2)N(C(=O)c2cccc(F)c2)CCC3)c1 | inactive
14 | CCN1C(=O)COC[C@@H]1[C@H](O)c1ccc(NC(=O)c2cc(C)nn2C)cc1 | inconclusive: 35.5 µM [inhibitor, partial curve, poor fit]
15 | Fc1cccc(CN2CC[C@@H]3CN(Cc4ccccc4)[C@@H]3C2)c1 | inactive
16 | O=C(NC1CCN(c2cc(-c3ccc(Cl)cc3)[nH]n2)CC1)c1cccnc1 | inactive
17 | COc1ccc(CCNC(=O)c2cccc(-n3c(C)nc4cccnc43)c2)cc1OC | inconclusive: 25.1 µM [inhibitor, partial curve, poor fit]
18 | O=C(c1ccc(=O)[nH]c1)N1CCCC(CCc2cccc(C(F)(F)F)c2)C1 (centres undefined) | inactive
19 | CC(Oc1cccc(Cl)c1)C(=O)NCc1nnc2ccc(-c3ccccc3)nn12 (centres undefined) | inactive
20 | CCCc1noc(-c2cn(C3CCN(C(=O)c4ccsc4)CC3)nn2)n1 | inconclusive: 11.2 µM [inhibitor, partial curve, poor fit]
21 | COc1ccc(NC(=O)C(=O)NCCc2ccc(OC)c(OC)c2)c(OC)c1 | inconclusive: 8.91 µM [inhibitor, full curve]
22 | CC[C@H]1CN(S(=O)(=O)c2ccc(OC)cc2)CC[C@H]1CC(=O)N1CCOCC1 | inactive
23 | CCN(CC1CCCO1)C(=O)c1ccccc1OC1CCN(C(=O)c2cccnc2)CC1 (centres undefined) | inactive

Row | SMILES | Potency
24 | CSc1ccc(CCNC(=O)CCCn2nc(C)c3sc4ccccc4c3c2=O)cc1 | inconclusive: 7.08 µM [inhibitor, single point]
25 | NC(N)=NC(N)=Nc1ccccc1 | inconclusive: 10 µM [inhibitor, partial curve]
26 | CC1=Nc2cc(C(=O)NC3CCCC3)ccc2Sc2ccc(C)cc21 | inconclusive: 39.8 µM [inhibitor, partial curve, poor fit]
27 | O=C(Nc1ccc(F)cc1)c1cn2cc(-c3cccc(C(F)(F)F)c3)sc2n1 | inactive
28 | CCOC(=O)c1ccc(NC(=O)N2Cc3[nH]cnc3C[C@H]2c2nc(-c3cccc(C)c3)no2)cc1 | inconclusive: 28.2 µM [inhibitor, single point]
29 | CC1=C(c2ccc(C)c(C)c2)S(=O)(=O)N=C1N1CCC(C(=O)NCCc2ccco2)CC1 | inconclusive: 1.12 µM [inhibitor, full curve]
30 | CC1(C)[C@H](Cc2cc(CCO)on2)C[C@@H]1NCC1CC1 | inconclusive: 3.16 µM [inhibitor, full curve, poor fit]
31 | CC(C)CCNC(=O)Nc1ccc2c(c1)N(C)C(=O)c1ccccc1S2 | inconclusive: 39.8 µM [inhibitor, partial curve, poor fit]
32 | Cc1c(CC(=O)NC(C)C2CC2)c2c(n1Cc1ccccc1F)CCCC2=O (centres undefined) | inconclusive: 1.26 µM [inhibitor, full curve, poor fit]
33 | c1ccc(CNc2ncncc2-c2ccoc2)cc1 | inconclusive: 14.1 µM [inhibitor, partial curve, poor fit]
34 | Cc1noc(C)c1[S+](=O)([O-])N1CCCC2(CC(c3cccc(C(F)(F)F)c3)=NO2)C1 (centres undefined) | inactive
35 | Cc1ccc(C(=O)N2CCN(C(=O)c3nnn4c3COC(c3ccc(Cl)cc3)C4)CC2)cc1F (centres undefined) | inactive
36 | Cc1ccc(C(=O)N2CCc3[nH]nc(C(=O)NCCCc4ccccc4)c3C2)cc1 | inconclusive: 39.8 µM [inhibitor, single point]
37 | CCc1cccc2c(C(CC(=O)NCc3ccc(F)cc3)c3cccc(OC)c3OC)c[nH]c12 (centres undefined) | inactive
38 | COc1ccc(N2CCN(C(=O)CCc3c(C)nc4cc(-c5ccc(Cl)cc5)nn4c3C)CC2)cc1 | inconclusive: 39.8 µM [inhibitor, single point]
39 | CCN1CCNC(=O)C1CC(=O)N1CCn2nc(Cc3ccccc3)cc2C1 (centres undefined) | inconclusive: 0.631 µM [inhibitor, full curve, poor fit]
40 | Cc1ccccc1NC(=O)N1CCC(CCNC(=O)c2ccnn2C)CC1 | inactive
41 | Cn1ccc(NC(=O)c2ccc3c(c2)NC(C)(CNCc2ccccc2)CO3)n1 (centres undefined) | inconclusive: 12.6 µM [inhibitor, single point]
42 | COc1ccc(-c2nn(C)c3sc(C(=O)Nc4cc(OC)c(OC)c(OC)c4)cc23)cc1OC | inconclusive: 35.5 µM [inhibitor, single point]
43 | O=C(Cc1c[nH]c2ccccc12)N1CCCC2(C1)Nc1cccnc1NC2=NC1CCCC1 (centres undefined) | inactive
44 | CCOc1ccccc1NC(=O)Cn1c(=O)n(-c2ccc(Cl)cc2)c(=O)c2oc3ccccc3c21 | inconclusive: 0.891 µM [inhibitor, full curve]
45 | NC1CCC(n2cc(C(=O)NC3CCCN(c4ncccn4)C3)nn2)CC1 (centres undefined) | inactive
46 | CCc1cccc(NC(=O)C2CCN(C(=O)c3ncn4c3COC(c3ccccc3)C4)CC2)c1 (centres undefined) | inactive

Row | SMILES | Potency
47 | CC(=O)c1ccc(NC(=O)Cn2ccn3nc(-c4ccc(F)cc4)c(CO)c3c2=O)cc1 | inconclusive: 6.31 µM [inhibitor, full curve, poor fit]
48 | COC(=O)[C@@H]1Cc2c([nH]c3ccccc23)[C@H]2C[C@@H](NCCN3CCOCC3)C[C@@H](c3ccccc3F)N21 | inconclusive: 39.8 µM [inhibitor, single point]
49 | COc1cccc(CC(=O)N2CCC3(CC2)N=C(c2ccc(Cl)cc2)NO3)c1 | inconclusive: 3.16 µM [inhibitor, full curve]
50 | CCC(=O)N1Cc2ccccc2CC2(CCN(CCc3ccc(C)cc3)CC2)C1 | inactive
51 | CCCNC(=O)C1COC2(CCC(C)CC2)N1C(=O)c1ccc(Cl)c(Cl)c1 (centres undefined) | inactive
52 | O=C(CC1CCCCN(Cc2ccccc2)C1=O)NCc1ccccc1 (centres undefined) | inconclusive: 8.91 µM [inhibitor, partial curve, poor fit]
53 | CC(Oc1ccccc1)C(=O)Nc1ccccc1C(=O)OCc1cc(=O)n2nc(C3CC3)sc2n1 (centres undefined) | inactive
54 | CCOC(=O)CN(Cc1ccccc1)C(C(=O)NC1CCCCC1)c1ccccc1 (centres undefined) | inconclusive: 25.1 µM [inhibitor, single point]
55 | O=C(O)CC1(CC(=O)N[C@H]2CO[C@H]3[C@@H]2OC[C@@H]3n2nnnc2Oc2ccc(-n3cncn3)cc2)CCCC1 | inactive
56 | CCn1ccnc1CN(C)Cc1cn(Cc2ccccc2)nc1-c1ccc2c(c1)OCO2 | inactive
57 | N#C/C(=C\c1cccc(F)c1)c1nc(-c2cc3ccccc3oc2=O)cs1 | inconclusive: 7.94 µM [inhibitor, single point]
58 | CC1CCN(C(=O)CCC2(Cc3ccc4ccccc4c3)CCC(=O)N2)CC1 (centres undefined) | inactive
59 | Cc1ccc(C)c(C(=O)Nc2ccc3c(N4CCCC4)ncnc3c2)c1 | inconclusive: 2 µM [inhibitor, partial curve, poor fit]
60 | Cc1ccc(S(=O)(=O)c2cn(CC(=O)Nc3ccc4c(c3)OCO4)c3ccc(C)cc3c2=O)cc1 | inconclusive: 1 µM [inhibitor, partial curve, poor fit]
61 | C1Cc2nnc(C3CC3)n2CCN1 | inconclusive: 4.47 µM [inhibitor, single point]
62 | O=C(Nc1noc2ccccc12)c1ccc(F)cc1 | inactive
63 | CCCNc1cc(N2CCC(CCC(=O)NCc3cccc(OC)c3)CC2)ncn1 | active: 2.24 µM
64 | Cc1noc2c(NCc3ccccc3)cc(-c3cccnc3)nc12 | inactive
65 | CCCNc1cc(N2CCC(CCC(=O)Nc3cccc(C)c3)CC2)ncn1 | active: 2 µM
66 | COc1ccc(-c2cnc([C@@H]3COCCN3Cc3ccccc3O)[nH]2)cc1 | inconclusive: 7.08 µM [inhibitor, single point]
67 | O=C(Cn1nc2c(cc1=O)CCCCC2)NCCn1ccc2c(Cl)cccc21 | inconclusive: 7.08 µM [inhibitor, single point]
68 | NS(=O)(=O)c1ccsc1C(=O)N1CCCC2(CCNCC2)CC1 | inconclusive: 39.8 µM [inhibitor, single point]
69 | O=C1CC(C(=O)O)C2(CCN(c3cc(C4CC4)ncn3)CC2)N1 (centres undefined) | inconclusive: 3.55 µM [inhibitor, full curve, poor fit]
